The text below walks through data of PMC6212398, “Competing protein-protein interactions regulate binding of Hsp27 to its client protein tau” (Nature Communications, 2018).

Protein sequences, listed by entry. Tags and fused reporters are not part of them. Lines headed by an entry give the natural chain unless they say otherwise; changes in a name come on top. Chains listed by the source or under a name are the forms on record and can include a tag or linker. Residues count along the entry.
UniProt O95817: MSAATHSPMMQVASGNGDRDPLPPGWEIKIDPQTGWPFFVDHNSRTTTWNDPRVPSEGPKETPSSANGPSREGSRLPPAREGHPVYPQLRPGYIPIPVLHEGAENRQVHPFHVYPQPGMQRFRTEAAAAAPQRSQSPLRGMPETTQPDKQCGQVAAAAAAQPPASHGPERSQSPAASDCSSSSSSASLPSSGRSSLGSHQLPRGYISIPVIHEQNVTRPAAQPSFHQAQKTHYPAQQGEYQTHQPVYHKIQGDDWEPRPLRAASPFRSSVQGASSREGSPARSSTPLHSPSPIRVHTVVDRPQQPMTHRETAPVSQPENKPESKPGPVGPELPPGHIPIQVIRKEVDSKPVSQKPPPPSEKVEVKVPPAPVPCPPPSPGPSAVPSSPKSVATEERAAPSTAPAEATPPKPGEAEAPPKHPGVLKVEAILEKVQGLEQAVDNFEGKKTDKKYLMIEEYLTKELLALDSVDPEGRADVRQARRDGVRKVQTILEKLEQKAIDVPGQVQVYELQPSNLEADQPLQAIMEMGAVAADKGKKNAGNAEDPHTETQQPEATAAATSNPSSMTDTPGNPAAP
Hsp27 alpha-crystallin domain (ACD, residues Q80–S176) (P04792, residues 80-176): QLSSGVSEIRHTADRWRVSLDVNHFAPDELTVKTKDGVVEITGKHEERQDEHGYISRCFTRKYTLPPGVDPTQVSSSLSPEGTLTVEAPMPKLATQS
Hsp27 ACD L157A (P04792, form named): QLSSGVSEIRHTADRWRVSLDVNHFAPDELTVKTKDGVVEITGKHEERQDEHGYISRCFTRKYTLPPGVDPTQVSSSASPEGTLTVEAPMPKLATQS

These are yes or no findings as the source states them, for the method shown. Some results given as binding are weak or reduced against the parent protein; the word gives no strength.

The test concerns the target BAG3 (UniProt O95817). In words: ITC; sHSP (200 µM) in the syringe titrated into 10 µM BAG3 in the cell; 25 mM Hepes, 5 mM MgCl2, 100 mM KCl, pH 7.5; 25 °C; both purified. (In general: ITC needs no label: the signal is the heat of the interaction.)

With “Hsp27 ACD L157A (from UniProt P04792 80-176) (domain or fragment)”, the binding entry is recorded as “no binding (tested: sHSP (200 µM) titrated into 10 µM BAG3)”.
As for “Hsp27 alpha-crystallin domain (ACD, residues Q80–S176) (from UniProt P04792 80-176) (domain or fragment)”, the entry is “binds”.
